Single values are uncertain, as repeats are few or missing.
Legend:
CHO-K1 [1] = assay: hypodiploid nuclei frequency (% of nucleated events); higher = more hypodiploid events (aneugenic)
Method: (§1)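 Flow-cytometric in vitro micronucleus assay (Litron MicroFlow) in CHO-K1 cells in 96-well plates, 19 concentrations (4.5-200 µM, n=1 per concentration). Without S9, cells were exposed for 24 h and sampled at 48 h. With Aroclor 1254-induced rat liver S9, cells were exposed for 3-4 h and sampled at 27-28 h. Read-outs are %MN and %hypodiploid nuclei relative to nucleated events, and relative survival as the nuclei-to-bead ratio versus the 1% DMSO vehicle control (x100).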

CHO-K1 [2] = assay: micronucleus frequency (% of nucleated events); higher = more micronuclei (genotoxic)
CHO-K1 [3] = assay: relative survival (nuclei to bead ratio vs DMSO control) (% of vehicle control); higher = more surviving cells
Method: as §1

[4] = concentration: 4.5 (µM), S9 metabolic activation: with S9, exposure time: 3-4 hours
[5] = concentration: 4.5 (µM), S9 metabolic activation: without S9, exposure time: 24 hours
[6] = concentration: 5.63 (µM), S9 metabolic activation: with S9, exposure time: 3-4 hours
[7] = concentration: 5.63 (µM), S9 metabolic activation: without S9, exposure time: 24 hours
[8] = concentration: 7.04 (µM), S9 metabolic activation: with S9, exposure time: 3-4 hours
[9] = concentration: 7.04 (µM), S9 metabolic activation: without S9, exposure time: 24 hours
[10] = concentration: 8.8 (µM), S9 metabolic activation: with S9, exposure time: 3-4 hours
[11] = concentration: 8.8 (µM), S9 metabolic activation: without S9, exposure time: 24 hours
[12] = concentration: 11 (µM), S9 metabolic activation: with S9, exposure time: 3-4 hours
[13] = concentration: 11 (µM), S9 metabolic activation: without S9, exposure time: 24 hours
[14] = concentration: 13.7 (µM), S9 metabolic activation: with S9, exposure time: 3-4 hours
[15] = concentration: 13.7 (µM), S9 metabolic activation: without S9, exposure time: 24 hours
[16] = concentration: 17.2 (µM), S9 metabolic activation: with S9, exposure time: 3-4 hours
[17] = concentration: 17.2 (µM), S9 metabolic activation: without S9, exposure time: 24 hours
[18] = concentration: 21.5 (µM), S9 metabolic activation: with S9, exposure time: 3-4 hours
[19] = concentration: 21.5 (µM), S9 metabolic activation: without S9, exposure time: 24 hours
[20] = concentration: 26.8 (µM), S9 metabolic activation: with S9, exposure time: 3-4 hours
[21] = concentration: 26.8 (µM), S9 metabolic activation: without S9, exposure time: 24 hours
[22] = concentration: 33.6 (µM), S9 metabolic activation: with S9, exposure time: 3-4 hours
[23] = concentration: 33.6 (µM), S9 metabolic activation: without S9, exposure time: 24 hours
[24] = concentration: 41.9 (µM), S9 metabolic activation: with S9, exposure time: 3-4 hours
[25] = concentration: 41.9 (µM), S9 metabolic activation: without S9, exposure time: 24 hours
[26] = concentration: 52.4 (µM), S9 metabolic activation: with S9, exposure time: 3-4 hours
[27] = concentration: 52.4 (µM), S9 metabolic activation: without S9, exposure time: 24 hours
[28] = concentration: 65.5 (µM), S9 metabolic activation: with S9, exposure time: 3-4 hours
[29] = concentration: 65.5 (µM), S9 metabolic activation: without S9, exposure time: 24 hours
[30] = concentration: 81.9 (µM), S9 metabolic activation: with S9, exposure time: 3-4 hours
[31] = concentration: 81.9 (µM), S9 metabolic activation: without S9, exposure time: 24 hours
[32] = concentration: 102 (µM), S9 metabolic activation: with S9, exposure time: 3-4 hours
[33] = concentration: 102 (µM), S9 metabolic activation: without S9, exposure time: 24 hours
[34] = concentration: 128 (µM), S9 metabolic activation: with S9, exposure time: 3-4 hours
[35] = concentration: 128 (µM), S9 metabolic activation: without S9, exposure time: 24 hours
[36] = concentration: 160 (µM), S9 metabolic activation: with S9, exposure time: 3-4 hours
[37] = concentration: 160 (µM), S9 metabolic activation: without S9, exposure time: 24 hours
[38] = concentration: 200 (µM), S9 metabolic activation: with S9, exposure time: 3-4 hours
[39] = concentration: 200 (µM), S9 metabolic activation: without S9, exposure time: 24 hours
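For hypodiploid nuclei frequency (% of nucleated events) in this document: hypodiploid nuclei gated on a flow cytometer with 488 nm excitation after SYTOX Green staining, cultures at 37 °C, positive controls vinblastine without S9 and cyclophosphamide with S9.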
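For micronucleus frequency (% of nucleated events) in this document: cells lysed with nuclei stained by SYTOX Green, then micronucleus-gated events counted against nucleated events by flow cytometry with 488 nm excitation.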
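For relative survival (nuclei to bead ratio vs DMSO control) in this document: Lysed-cell nuclei stained with SYTOX Green and counted against counting beads by flow cytometry at 488 nm excitation, with vinblastine (no S9) and cyclophosphamide (plus S9) as positive controls.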

## ClC(Cl)(Cl)c1ccccc1 [Benzotrichloride]
CHO-K1 [1]; [4]
  hypodiploid nuclei frequency: 0.16%
CHO-K1 [1]; [5]
  hypodiploid nuclei frequency: 0.84%
CHO-K1 [1]; [6]
  hypodiploid nuclei frequency: 0.22%
CHO-K1 [1]; [7]
  hypodiploid nuclei frequency: 0.72%
CHO-K1 [1]; [8]
  hypodiploid nuclei frequency: 0.2%
CHO-K1 [1]; [9]
  hypodiploid nuclei frequency: 0.8%
CHO-K1 [1]; [10]
  hypodiploid nuclei frequency: 0.28%
CHO-K1 [1]; [11]
  hypodiploid nuclei frequency: 0.72%
CHO-K1 [1]; [12]
  hypodiploid nuclei frequency: 0.2%
CHO-K1 [1]; [13]
  hypodiploid nuclei frequency: 0.76%
CHO-K1 [1]; [14]
  hypodiploid nuclei frequency: 0.2%
CHO-K1 [1]; [15]
  hypodiploid nuclei frequency: 0.8%
CHO-K1 [1]; [16]
  hypodiploid nuclei frequency: 0.3%
CHO-K1 [1]; [17]
  hypodiploid nuclei frequency: 0.7%
CHO-K1 [1]; [18]
  hypodiploid nuclei frequency: 0.16%
CHO-K1 [1]; [19]
  hypodiploid nuclei frequency: 0.88%
CHO-K1 [1]; [20]
  hypodiploid nuclei frequency: 0.2%
CHO-K1 [1]; [21]
  hypodiploid nuclei frequency: 1.06%
CHO-K1 [1]; [22]
  hypodiploid nuclei frequency: 0.14%
CHO-K1 [1]; [23]
  hypodiploid nuclei frequency: 1.12%
CHO-K1 [1]; [24]
  hypodiploid nuclei frequency: 0.22%
CHO-K1 [1]; [25]
  hypodiploid nuclei frequency: 0.96%
CHO-K1 [1]; [26]
  hypodiploid nuclei frequency: 0.22%
CHO-K1 [1]; [27]
  hypodiploid nuclei frequency: 1%
CHO-K1 [1]; [28]
  hypodiploid nuclei frequency: 0.24%
CHO-K1 [1]; [29]
  hypodiploid nuclei frequency: 0.8%
CHO-K1 [1]; [30]
  hypodiploid nuclei frequency: 0.2%
CHO-K1 [1]; [31]
  hypodiploid nuclei frequency: 1.06%
CHO-K1 [1]; [32]
  hypodiploid nuclei frequency: 0.26%
CHO-K1 [1]; [33]
  hypodiploid nuclei frequency: 1.12%
CHO-K1 [1]; [34]
  hypodiploid nuclei frequency: 0.18%
CHO-K1 [1]; [35]
  hypodiploid nuclei frequency: 0.94%
CHO-K1 [1]; [36]
  hypodiploid nuclei frequency: 0.2%
CHO-K1 [1]; [37]
  hypodiploid nuclei frequency: 1.1%
CHO-K1 [1]; [38]
  hypodiploid nuclei frequency: 0.38%
CHO-K1 [1]; [39]
  hypodiploid nuclei frequency: 1.26%
CHO-K1 [2]; [4]
  micronucleus frequency: 1.04%
CHO-K1 [2]; [5]
  micronucleus frequency: 2.6%
CHO-K1 [2]; [6]
  micronucleus frequency: 1.38%
CHO-K1 [2]; [7]
  micronucleus frequency: 1.56%
CHO-K1 [2]; [8]
  micronucleus frequency: 1.24%
CHO-K1 [2]; [9]
  micronucleus frequency: 1.72%
CHO-K1 [2]; [10]
  micronucleus frequency: 1.42%
CHO-K1 [2]; [11]
  micronucleus frequency: 1.78%
CHO-K1 [2]; [12]
  micronucleus frequency: 1.04%
CHO-K1 [2]; [13]
  micronucleus frequency: 2.26%
CHO-K1 [2]; [14]
  micronucleus frequency: 1.08%
CHO-K1 [2]; [15]
  micronucleus frequency: 1.48%
CHO-K1 [2]; [16]
  micronucleus frequency: 1.06%
CHO-K1 [2]; [17]
  micronucleus frequency: 1.56%
CHO-K1 [2]; [18]
  micronucleus frequency: 0.88%
CHO-K1 [2]; [19]
  micronucleus frequency: 2.02%
CHO-K1 [2]; [20]
  micronucleus frequency: 1.4%
CHO-K1 [2]; [21]
  micronucleus frequency: 1.66%
CHO-K1 [2]; [22]
  micronucleus frequency: 1.48%
CHO-K1 [2]; [23]
  micronucleus frequency: 2%
CHO-K1 [2]; [24]
  micronucleus frequency: 1.32%
CHO-K1 [2]; [25]
  micronucleus frequency: 1.64%
CHO-K1 [2]; [26]
  micronucleus frequency: 1.12%
CHO-K1 [2]; [27]
  micronucleus frequency: 1.84%
CHO-K1 [2]; [28]
  micronucleus frequency: 1.32%
CHO-K1 [2]; [29]
  micronucleus frequency: 2.02%
CHO-K1 [2]; [30]
  micronucleus frequency: 1.42%
CHO-K1 [2]; [31]
  micronucleus frequency: 2.08%
CHO-K1 [2]; [32]
  micronucleus frequency: 1.34%
CHO-K1 [2]; [33]
  micronucleus frequency: 2.16%
CHO-K1 [2]; [34]
  micronucleus frequency: 1.24%
CHO-K1 [2]; [35]
  micronucleus frequency: 1.78%
CHO-K1 [2]; [36]
  micronucleus frequency: 1.06%
CHO-K1 [2]; [37]
  micronucleus frequency: 2.02%
CHO-K1 [2]; [38]
  micronucleus frequency: 1.44%
CHO-K1 [2]; [39]
  micronucleus frequency: 2.28%
CHO-K1 [3]; [4]
  relative survival: 155
CHO-K1 [3]; [5]
  relative survival: 151
CHO-K1 [3]; [6]
  relative survival: 152
CHO-K1 [3]; [7]
  relative survival: 169
CHO-K1 [3]; [8]
  relative survival: 111
CHO-K1 [3]; [9]
  relative survival: 132
CHO-K1 [3]; [10]
  relative survival: 133
CHO-K1 [3]; [11]
  relative survival: 172
CHO-K1 [3]; [12]
  relative survival: 143
CHO-K1 [3]; [13]
  relative survival: 123
CHO-K1 [3]; [14]
  relative survival: 161
CHO-K1 [3]; [15]
  relative survival: 133
CHO-K1 [3]; [16]
  relative survival: 179
CHO-K1 [3]; [17]
  relative survival: 120
CHO-K1 [3]; [18]
  relative survival: 138
CHO-K1 [3]; [19]
  relative survival: 117
CHO-K1 [3]; [20]
  relative survival: 96.2
CHO-K1 [3]; [21]
  relative survival: 109
CHO-K1 [3]; [22]
  relative survival: 105
CHO-K1 [3]; [23]
  relative survival: 146
CHO-K1 [3]; [24]
  relative survival: 106
CHO-K1 [3]; [25]
  relative survival: 121
CHO-K1 [3]; [26]
  relative survival: 117
CHO-K1 [3]; [27]
  relative survival: 131
CHO-K1 [3]; [28]
  relative survival: 123
CHO-K1 [3]; [29]
  relative survival: 105
CHO-K1 [3]; [30]
  relative survival: 97.5
CHO-K1 [3]; [31]
  relative survival: 158
CHO-K1 [3]; [32]
  relative survival: 146
CHO-K1 [3]; [33]
  relative survival: 130
CHO-K1 [3]; [34]
  relative survival: 139
CHO-K1 [3]; [35]
  relative survival: 111
CHO-K1 [3]; [36]
  relative survival: 126
CHO-K1 [3]; [37]
  relative survival: 96
CHO-K1 [3]; [38]
  relative survival: 138
CHO-K1 [3]; [39]
  relative survival: 85.5

From the supplement of paper PMC9151546
